The test system of the assay is Plasmodium falciparum. The experiment in a line: Primary screen in NF54 nanoGlo assay, in single point, at 2uM, 72h; a lower Z score goes with more inhibition. Type of assay: functional, Erythrocyte. As to conditions: timepoint 72 hour.

The structures appear in SMILES notation. Among all 150,000 compounds or so, about 540 (0.36%) showed an effect of 50% or more. The list shows a part of the results.

This is an account of results in ChEMBL document CHEMBL4888484, “Replenishing the malaria drug discovery pipeline: Screening and hit evaluation of the MMV Hit Generation Library 1 (HGL1) against asexual blood stage Plasmodium falciparum ,using a nano luciferase reporter read-out” (2022).

As for `CC(C(=O)N1CC(=O)Nc2ccccc21)N1CCOC(c2ccc(Cl)cc2)C1` (configuration not stated), the % Inhibition – broadly, the relative decrease from the control value, in per cent – is reported as -5% and the Z score was 0.73.

With `O=C(Nc1ccc(Oc2ccccc2)cc1)c1ncn(C[C@H](O)c2ccc(F)cc2)n1`, the “% Inhibition” value is recorded as 2% and the Z score is -0.18.

Regarding `COc1ccccc1N(CC(F)(F)F)C(=O)C1OCCC1C` (configuration not stated), the “% Inhibition” value stood at 3% and the Z score was -0.48.

Regarding `Cc1cc(S(=O)(=O)NC[C@H]2CCOCO2)c(Cl)cc1F`, the “% Inhibition” value is on record as -6% and the Z score is 1.04.

`COc1ccc(CN2C(=O)c3ccccc3C2=O)cc1C(=O)N1CCC(C(=O)N[C@@H](C)C(C)C)CC1`: the “% Inhibition” value worked out at 2% and the Z score is listed as -0.22.

Take `O=C(Nc1cccc(-c2nc3ccccc3s2)c1)C1=COCCO1`: the “% Inhibition” value is reported as -20% and the Z score came out at 2.65.

In the case of `Cc1ccc(OCc2nc(C)c(C)o2)nc1`, the “% Inhibition” value was found to be 6% and the Z score is -0.91.

Consider `CCOC(=O)C1=C(c2ccccc2)S/C(=C2/C(=S)C(C)(C)Nc3cc(OCC)ccc32)S1`, for which, under “2 µM”, the “% Inhibition” value was -7% and the Z score stood at 4.44.

For `CN(C)C(=O)CN1C(=O)[C@@H]2CC[C@H]1CN(C(=O)CCc1ccc(Cl)cc1)C2`, the “% Inhibition” value is listed as -6% and the Z score turned out to be 1.24.

On to `C[C@@H](NCc1cncc(Br)c1)c1ccccc1`, for which the “% Inhibition” value is recorded as 3% and the Z score is -0.39.

As for `CNc1ccc(C(F)(F)F)cc1C(=O)O`, the “% Inhibition” value came to 10% and the Z score was -1.5.

Regarding `Cn1c(=O)n(C)c2cc([C@@H](O)COc3ccc(CNC4CCCCCC4)cc3)ccc21`, the “% Inhibition” value is -23% and the Z score is recorded as 2.05.

Turning to `CC1(F)CN(C(=O)NCc2ncc(Br)cn2)C1`, the “% Inhibition” value is 2% and the Z score is given as -0.39.

On to `CN(Cc1ccccc1)[C@@H](c1cnn(C)c1)c1sc2ncnn2c1O`, for which the “% Inhibition” value turned out to be 10% and the Z score was -1.5.

Regarding `C#C[C@@H](NC(=O)NCCc1ccnn1C)C(C)C`, the “% Inhibition” value is -6% and the Z score came out at 0.62.

In the case of `CC1CCCN(c2oc(C3CC3c3ccccc3)nc2C#N)C1` (configuration not stated), the “% Inhibition” value is given as -10% and the Z score was determined as 1.38.

As to `CCc1nn(C)c2c(=O)n(CC(C)(C)N3CCOCC3)cnc12`, the “% Inhibition” value was -5% and the Z score was 0.98.

As to `CC(=O)NC1(C(=O)N2CCN(C3CCCC3O)CC2)CCCCC1` (configuration not stated), the “% Inhibition” value was 4% and the Z score is on record as -0.57.

As for `COc1ccc(CNC(=O)[C@]2(C)Cn3cnc(C(=O)NC4CCCCCC4)c3C(=O)N2C2CC2)cc1`, the “% Inhibition” value is -1% and the Z score is recorded as 0.06.

For `N#CCCn1cc(CNc2ccc(F)cn2)c(-c2ccccc2)n1`, the “% Inhibition” value is -7% and the Z score is listed as 0.76.

As to `CCC(C)(C)COC(=O)c1ccc(C#N)c(C)n1`, the “% Inhibition” value is recorded as -12% and the Z score was determined as 1.77.

`CNS(=O)(=O)CC(=O)N[C@H]1CCN(c2ccc(F)c(Cl)c2)C1`: the “% Inhibition” value came to 6% and the Z score was -1.15.

Turning to `COC(=O)[C@H]1CC[C@@H](NC(=O)Nc2cccc(C(C)(F)F)c2)C1`, the “% Inhibition” value is given as -19% and the Z score was determined as 2.26.

For the molecule `Cc1nonc1CN(C)C(=O)c1coc(Cn2cnc3ccccc32)n1`, the “% Inhibition” value is -10% and the Z score came to 1.67.

`Cc1nc(N)ncc1C(=O)N1CCOC(C)(C)C1`: the “% Inhibition” value is -15% and the Z score was found to be 1.47.

For `OCC[C@H]1CN(Cc2cnc(N3CCCC3)s2)CCN1Cc1ccsc1`, the “% Inhibition” value is -5% and the Z score came out at 0.68.

On to `COc1cccc(NC(=O)Cn2c(=O)c3cc(C4CC4)nn3c3ncccc32)c1`, for which the “% Inhibition” value is 11% and the Z score is reported as -2.13.

Consider `CC(C)N(C(=O)CCOC1CCOCC1)c1cnn(C)c1`, for which the “% Inhibition” value was -17% and the Z score is listed as 1.51.

Turning to `CC(C)c1cccc(OCc2nnn(C(C)(C)C)n2)c1`, the “% Inhibition” value is -12% and the Z score came to 1.67.

Regarding `CCOC1CC(NC(=O)COCc2nc(C)no2)C12CCCC2` (configuration not stated), the “% Inhibition” value is on record as -13% and the Z score is 1.65.

`CNc1nc(C)cc(C(=O)Nc2ccc(Cl)cc2NC(C)=O)n1`: the “% Inhibition” value is reported as 33% and the Z score is listed as -0.34.

Take `CCOc1cc(C(=O)Nc2ncccc2O)ccc1OCCOc1ccccc1`: the “% Inhibition” value amounted to 18% and the Z score is given as -2.34.

Regarding `c1ccc(-c2ncn(CCN3CCCCC3)c2-c2cnn3cccnc23)cc1`, the “% Inhibition” value is on record as -12% and the Z score is 1.19.

Take `CC(C(=O)N1CC[C@H](C)C[C@@H]1C)c1ccccc1` (some centres not stated): the “% Inhibition” value is given as 2% and the Z score is reported as -0.19.

In the case of `O=C(Cc1ccc(CO)cc1)N1C[C@H]2CC[C@@H](C1)N(CC1CCC1)C2=O`, the “% Inhibition” value is on record as -4% and the Z score is on record as 0.66.

Regarding `O=C(Cn1nc(-n2cccn2)ccc1=O)NCc1ccco1`, the “% Inhibition” value was -7% and the Z score is 1.27.

As for `Cc1cc(F)cc(C)c1C(=O)NCCS(N)(=O)=O`, the “% Inhibition” value is listed as -4% and the Z score worked out at 0.48.

Regarding `CS(=O)(=O)N1CCC(C(=O)NC2CCCCC2C(F)(F)F)CC1` (configuration not stated), the “% Inhibition” value stood at 4% and the Z score is on record as -0.4.

In the case of `CCONC(=O)C(NC(=O)c1ccc(Cl)cc1)C(C)CC` (configuration not stated), the “% Inhibition” value is 8% and the Z score was -1.54.

As for `CCN(CC)C(=O)N1CCC(C(=O)N2c3ccccc3C[C@@H]2C)CC1`, the “% Inhibition” value is on record as 4% and the Z score is -0.82.

For `CCn1nc(C)c(CN2CCCN(S(=O)(=O)N3CCOCC3)CC2)c1C`, the “% Inhibition” value is listed as -18% and the Z score was 2.83.

For `CCc1nc(C)ccc1OCc1cccnc1`, the “% Inhibition” value came out at 0% and the Z score was -0.07.

Turning to `Cc1nonc1OCCNC(=O)C[C@H]1CCCOC1`, the “% Inhibition” value is listed as 5% and the Z score was -0.63.

`CS(=O)(=O)N1CCC[C@H](CNC(=O)CN2Cc3ccccc3C2)C1`: the “% Inhibition” value was -3% and the Z score was 0.67.

On to `CCCNC(=O)CNC(=O)c1coc(C)n1`, for which the “% Inhibition” value is reported as -1% and the Z score is 0.07.

For `C=C(C)[C@H](NC(=O)N1CCS(=O)(=O)CC1)c1ccc(F)c(F)c1`, the “% Inhibition” value is -8% and the Z score amounted to 1.58.

With `Cc1ccsc1CNC(=O)Cn1cc2c(n1)CCOC2`, the “% Inhibition” value was -12% and the Z score amounted to 1.56.

As for `COc1cccc(F)c1C(=O)N[C@@H]1[C@H]2CCO[C@H]2[C@H]1Cc1ccccc1`, the “% Inhibition” value is recorded as -7% and the Z score was determined as 0.86.

Consider `COc1ccccc1CNC(=O)Cn1c(C)nc2onc(C)c2c1=O`, for which the “% Inhibition” value is on record as -1% and the Z score was 0.11.

As for `O=C(NCc1ccnc(-c2ccco2)c1)c1cccc(Cl)c1`, the “% Inhibition” value was -3% and the Z score worked out at 0.5.

Take `O=C(Oc1ccc(F)cc1)c1cc(-c2ccccc2)on1`: the “% Inhibition” value came to 7% and the Z score was -0.76.

For `CNC(=O)c1nc(CN2C(=O)CCCC2=O)no1`, the “% Inhibition” value is on record as -17% and the Z score turned out to be 2.33.

As to `C=CC[C@@H](CO)Nc1ccc(F)cc1C#N`, the “% Inhibition” value was -6% and the Z score is listed as 0.74.

As for `O=C(NCC1CCCCCC1)N[C@H]1COC[C@@H]1O`, the “% Inhibition” value is -6% and the Z score is given as 1.12.

In the case of `Cc1ncsc1C(=O)NCc1nnc2cc(C(F)(F)F)ccn12`, the “% Inhibition” value is -7% and the Z score is given as 1.11.

Take `CC(C)N1C(=O)CN(S(=O)(=O)CCCF)CC1(C)C`: the “% Inhibition” value is listed as -16% and the Z score is on record as 1.33.
